From the supplement of paper PMC3334620
Whole data set: some 33,000 sequences, median “E-score (-0.5 to 0.5)” near -0.053, cut for the highest 2% near 0.37. The list shows a part of the results.

Target: Hap1 (UniProt P0CE41)
Experiment: PBM E-score (8-mer binding enrichment) (E-score (-0.5 to 0.5)); higher = stronger / more preferred TF binding; most listed sequences are background and not binding sites
Conditions: protein concentration: 200 nM; construct: GST-DNA-binding domain
In short: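 Using PURExpress in vitro transcription/translation, GST-tagged yeast transcription factors were made in full-length or DNA-binding-domain form. These were applied at about 100-200 nM to double-stranded universal all-10-mer Agilent arrays, and bound protein was detected with fluorescent anti-GST. Scans were normalised with masliner before the Universal PBM Analysis Suite assigned E-scores to ungapped eight-base words pooled with their reverse complements.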

Chain of UniProt P0CE41 (P0CE41 whole entry): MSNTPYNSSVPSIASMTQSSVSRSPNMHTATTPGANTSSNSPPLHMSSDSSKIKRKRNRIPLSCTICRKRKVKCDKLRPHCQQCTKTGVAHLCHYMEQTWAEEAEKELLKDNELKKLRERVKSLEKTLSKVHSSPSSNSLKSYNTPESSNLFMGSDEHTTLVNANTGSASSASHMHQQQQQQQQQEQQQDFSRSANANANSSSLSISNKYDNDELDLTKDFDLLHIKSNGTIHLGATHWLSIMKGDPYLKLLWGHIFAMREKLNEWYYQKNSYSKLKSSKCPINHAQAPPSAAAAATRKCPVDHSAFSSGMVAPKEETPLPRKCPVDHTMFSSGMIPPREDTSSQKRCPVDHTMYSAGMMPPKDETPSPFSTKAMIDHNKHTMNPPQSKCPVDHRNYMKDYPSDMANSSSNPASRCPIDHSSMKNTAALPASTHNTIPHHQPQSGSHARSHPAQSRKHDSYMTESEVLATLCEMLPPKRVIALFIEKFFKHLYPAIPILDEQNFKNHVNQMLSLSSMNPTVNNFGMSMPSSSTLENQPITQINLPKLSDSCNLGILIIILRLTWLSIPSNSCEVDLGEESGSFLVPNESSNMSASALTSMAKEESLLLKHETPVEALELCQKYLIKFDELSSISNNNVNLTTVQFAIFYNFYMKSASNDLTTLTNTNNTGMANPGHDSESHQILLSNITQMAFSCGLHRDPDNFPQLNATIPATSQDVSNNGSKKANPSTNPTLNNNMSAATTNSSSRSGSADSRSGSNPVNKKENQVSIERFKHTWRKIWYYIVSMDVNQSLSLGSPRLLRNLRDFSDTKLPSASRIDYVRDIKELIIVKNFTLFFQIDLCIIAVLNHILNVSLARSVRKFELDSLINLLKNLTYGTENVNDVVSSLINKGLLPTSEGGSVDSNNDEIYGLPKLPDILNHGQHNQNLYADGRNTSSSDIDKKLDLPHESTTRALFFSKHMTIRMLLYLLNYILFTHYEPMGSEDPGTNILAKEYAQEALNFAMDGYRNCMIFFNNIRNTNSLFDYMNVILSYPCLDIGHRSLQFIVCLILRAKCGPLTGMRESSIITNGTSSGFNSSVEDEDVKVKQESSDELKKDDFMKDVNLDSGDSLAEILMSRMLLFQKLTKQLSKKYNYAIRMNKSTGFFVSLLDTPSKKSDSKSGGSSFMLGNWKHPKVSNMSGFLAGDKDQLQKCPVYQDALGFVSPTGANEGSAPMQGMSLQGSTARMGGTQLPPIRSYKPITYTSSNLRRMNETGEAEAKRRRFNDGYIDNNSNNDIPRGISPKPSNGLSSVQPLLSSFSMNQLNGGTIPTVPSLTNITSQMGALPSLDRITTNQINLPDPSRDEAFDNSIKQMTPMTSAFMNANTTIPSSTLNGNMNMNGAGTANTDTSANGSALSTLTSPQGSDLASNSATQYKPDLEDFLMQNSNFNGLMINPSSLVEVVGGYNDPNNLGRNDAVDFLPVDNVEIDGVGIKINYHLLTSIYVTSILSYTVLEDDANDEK

Point of comparison: AGTAATGC, “PBM E-score” value -0.0163. Against it:
- GAGCCCCA — lower, -0.0262
- AATTGAAC — lower, -0.129
- CCATACAG — lower, -0.185
- ACCCCTGG — lower, -0.0916
- ACTATAGA — lower, -0.0706
- GCCATAAA — higher, 0.0924
- AATCCAAT — lower, -0.0573
- GGTAAACC — higher, 0.104
- TAAGGCGA — lower, -0.0281
- ACCTTACT — higher, 0.105
- GATGGATA — lower, -0.0946
- AATGCGAA — higher, 0.0401
- GTACGTAA — lower, -0.116
- AACAGAGT — lower, -0.196
- CCCAAGAA — lower, -0.177
- ATAACTCG — higher, 0.205
- GTTATAAC — higher, 0.162
- ACCTTACG — higher, 0.0388
- GGATATTA — higher, 0.344
- AGATGCAT — lower, -0.129
- CAACTCAG — lower, -0.105
- AACGTCGG — higher, 0.177
- ATAGCTTA — lower, -0.151
- CATGATGC — lower, -0.199
- ATGGCTAG — lower, -0.139
- AGGAGACC — lower, -0.0433
- CGTGTGCC — lower, -0.16
- ATGGCGCG — higher, 0.0751
- GCAGCCCC — higher, 0.161
- CCGTGCGC — higher, 0.181
- ATTTTCAG — higher, 0.00634
- GCTAGCCC — higher, 0.00246
- TCGACAAA — higher, 0.0335
- ATCCTCTA — lower, -0.221
- GGTAAGAA — lower, -0.0886
- AACCGAGA — higher, 0.236
- CGAGGCTC — higher, 0.0721
- CACGCGGG — lower, -0.0168
- CTAGCGGA — higher, 0.28
- GTAAACCA — higher, -0.00443
- ATTCGTAG — lower, -0.177
- CTCCCCAC — lower, -0.197
- AGCCGAAT — higher, 0.267
- AACGCTGG — lower, -0.128
- ACGTATTC — lower, -0.0867
- CCTTATCG — higher, 0.241
- GCTTCGCC — higher, 0.106
- AGGTACGC — lower, -0.0652
- ACTTGCGG — higher, 0.0305
- ACCAGCTG — lower, -0.227
- TACGTACA — lower, -0.0577
- AAGTCAGG — higher, 0.00026
- CATATCAA — lower, -0.114
- GGCCCCAA — lower, -0.0333
- CGCTAGGC — lower, -0.0881
- AAGATAGA — lower, -0.195
- CAGGTATA — lower, -0.214
- ATCCAGAG — lower, -0.102
- GTGCAAAA — lower, -0.126
- GAACCACC — higher, 0.141
- AGTCAGCG — lower, -0.0462
- TCCCCTAA — lower, -0.0455
- TCGCAAGA — lower, -0.0283
- CTTGACGC — lower, -0.0589
- GTCGGAGA — higher, 0.355
- ACTGCTGC — lower, -0.0718
- CACCCAAA — lower, -0.047
- ACCAATAA — lower, -0.136
- CTGCGTAA — lower, -0.0618
- CTTTTGCA — lower, -0.0944
- TCCAGGAA — lower, -0.0908
- CCATAGGA — lower, -0.258
- AAATTCAG — lower, -0.0685
- CTTCAATC — lower, -0.0343
- ACATTAAT — higher, 0.0268
- CGGAGGGC — higher, 0.164
- AACCTAGC — lower, -0.025
- AGAGAGAG — lower, -0.302
- CCGTTGGA — higher, 0.0227
- ATAACCCA — lower, -0.0514
- GATTGTCA — lower, -0.0455
- TCCGACGA — higher, 0.324
- CATTGCAC — lower, -0.133
- CAATTCCC — higher, 0.0855
- TGCGTCAA — lower, -0.0196
- GTACAAGA — lower, -0.151
- AGCTGTTA — lower, -0.0992
- AGAACCCT — lower, -0.114
- CTCCTAGA — lower, -0.252
- CAAATAGA — higher, 0.0286
- ATTGAGCA — lower, -0.201
- AAGCTGTA — lower, -0.0893
- AAAATGAC — higher, 0.00651
- ACCCTCGA — lower, -0.127
- ACGCATAC — higher, -0.00662
- ACCGTCGC — higher, 0.193
- ACATGACT — lower, -0.29
- CGCAGTCA — lower, -0.0499
- CTATTGCA — lower, -0.11
- ACCTGTGG — lower, -0.18
- ACGGCTGC — higher, -0.00727
- CTCAGGAG — lower, -0.24
- CAGACTAG — lower, -0.378
- CCATCGAA — lower, -0.164
- CACCAGTG — lower, -0.243
- CGCTGGAC — lower, -0.0346
- AGTTTCAC — lower, -0.236
- ATAATCGA — lower, -0.0328
- CAGTTGGG — lower, -0.266
- AGAGTGGG — lower, -0.0463
- ACTTCCGC — higher, 0.249
- CAGTTCCC — higher, 0.11
- AGGGAAGA — lower, -0.335
- AGCCGTCG — higher, 0.0952
- AAATACTG — lower, -0.0576
- ACTGCGCG — higher, 0.106
- CACGGAGG — higher, 0.214
- CATACGGG — higher, 0.00011
- CAAGTATA — lower, -0.235
- ATGGCAGC — lower, -0.0667
- AGGAAAAC — lower, -0.054
- CTCACTGC — lower, -0.166
- GACTATTA — lower, -0.129
- TTTAAAAA — lower, -0.052
- CATGTAGG — lower, -0.0257
- ATGGATAA — lower, -0.0672
- AGGGAATC — lower, -0.147
- ATAACGAT — lower, -0.0501
- CGTACCAA — lower, -0.0973
- CTCTGTGA — lower, -0.288
- ACCACGAA — lower, -0.157
- ACGTGATG — lower, -0.267
- AAACAGCG — lower, -0.0524
- GTGGACGA — lower, -0.0496
- AGAGCCGA — higher, 0.306
- AGCTTTCC — higher, 0.0924
- ATCCGAAC — higher, 0.355
- AGGTGAGA — lower, -0.187
- CTAGTACA — lower, -0.117
- GGCTATTA — higher, 0.117
- CGCGGTGA — higher, 0.0447
- GAAGCAAC — lower, -0.0357
- ACCCTTAT — lower, -0.0243
- CCCCCGGA — higher, 0.305
- AATCGCGC — higher, 0.135
- AAAATTCG — higher, 0.149
- CCATACCC — higher, 0.108
- CGGAGACA — higher, 0.366
- CTGTGGGC — lower, -0.225
- GGCACCGA — higher, 0.094
- CTGGGAGC — lower, -0.0941
- AGGAGGGC — lower, -0.276
- CCATTCCA — lower, -0.0844
- AACGCGTC — higher, 0.0721
- AAAACATC — lower, -0.127
- CAACAGAG — lower, -0.0978
- GCGAAATA — higher, 0.083
- AACGCGTT — higher, 0.0902
- GTTCCCCA — lower, -0.0867
- TAGGAACA — lower, -0.231
- GATGTGAA — lower, -0.0999
- GATATACC — higher, 0.285
- AAACTTCC — higher, 0.0753
- GAACTTCC — higher, 0.0685
- AGATATCA — lower, -0.129
- TGGTATAA — lower, -0.0715
- CATAACGC — higher, 0.0608
- CATAGCGC — higher, 0.0635
- AAACGAAA — lower, -0.046
- AAGCTCAG — lower, -0.237
- TAAGCTCA — higher, -0.00629
